These results are taken from PubChem BioAssay AID1508624 (National Center for Advancing Translational Sciences (NCATS), 2021).

Each structure is given as a SMILES string. The campaign covered roughly 48,000 compounds. About 120 (0.25%) were called active. Roughly 4% stayed inconclusive and do not appear here. Calls come from the whole dose curve; as a rule, active = well fitted activation curve with a large enough effect; inconclusive = small, poorly fitted or top-dose-only effect, or another doubt; inactive = no such curve, though single readings can be large or run the other way. This is one part of the list.

The nature of this assay: Primary qHTS for Identification of Small Molecule Activators of Huntingtin-Antisense Promoter Activity. Note: nearly all actives have a fitted effect of over 55% in size. The conditions noted are these: HEK293 HTT-AS promoter firefly luciferase reporter, 24 h; series mostly up to 57.5 µM; activity change, positive = activation: at the top concentration. The gist of the method: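 Quantitative HTS used concentration series of up to 57.5 uM final on HEK293 luciferase reporter cells, 24 h at 37 degrees C. Readout was Dual-Glo firefly luminescence.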
(In general: Quantitative high-throughput screening tests each substance at several concentrations.)
For `Nc1cc(=O)nc(SCC(=O)Nc2ccc(F)cc2)n1CCc1ccccc1`, the activity change, positive = activation was inactive: 6.99% [at 11.5 µM, percent change from vehicle, -100% = no light].

With `COc1ccc(N2CC(NC(=O)c3ccco3)CC2=O)cc1` (configuration not stated), the “activity change, positive = activation” value is inactive: -18.4%.

For the molecule `O=C(Nc1ccccc1Br)C(Cc1ccccc1)NS(=O)(=O)c1cccc2nsnc12` (configuration not stated), the “activity change, positive = activation” value is inactive: -12%.

As to `COc1ccccc1NC(=O)C1CCN(C(=O)c2sc3nc[nH]c(=O)c3c2C)CC1`, the “activity change, positive = activation” value is inactive: -13.3%.

In the case of `CC(=O)Nc1cccc(NC(=O)CN2C(=O)CCSc3ccccc32)c1`, the “activity change, positive = activation” value was inactive: -20.3%.

Regarding `O=C(Nc1ccc2oc(-c3ccc(O)c(Br)c3)nc2c1)c1cc2ccccc2o1`, the “activity change, positive = activation” value was inactive: 18%.

With `Cc1nc2nc(NC(=O)c3ccccc3F)[nH]n2c(=O)c1Cl`, the “activity change, positive = activation” value is inactive: -2.87%.

Turning to `Cc1cccc(N2CCN(C(=O)c3cccn4c(=O)c5cc(Cl)ccc5nc34)CC2C)c1` (configuration not stated), the “activity change, positive = activation” value is inactive: -26.8%.

On to `CC(C)(CO)[C@@H](O)C(=O)NCCCO`, for which the “activity change, positive = activation” value is inactive: -1.96%.

On to `O=C(CSc1nnc(-c2cccc(Cl)c2)o1)N1CCc2ccccc21`, for which the “activity change, positive = activation” value is inactive: -5.65%.

In the case of `COc1ccc(C2C=C(c3cccc(OC)c3)Nc3c(C(=O)Nc4ccccc4)cnn32)cc1` (configuration not stated), the “activity change, positive = activation” value was inactive: -28%.

Consider `CCn1c2c(c(=O)n3ncc(C(=O)Nc4cc(Cl)ccc4C)c13)CN(Cc1ccc(OC)cc1)CC2`, for which the “activity change, positive = activation” value was inactive: -34.7%.

Consider `Cc1ccn2c(Nc3ccc(C(C)C)cc3)c(-c3cccs3)nc2c1`, for which the “activity change, positive = activation” value is inactive: -37.2%.

For `COc1cc(OC)c(NC(=O)C2=C(C)C(=O)OC23CCCCCC3)cc1Cl`, the “activity change, positive = activation” value was inactive: -20.1%.

As for `CC(C)C[C@H](NC(=O)CNC(=O)c1cc(Cl)ccc1Cl)B(O)O`, the “activity change, positive = activation” value was inactive: -48.6%.

In the case of `CC(C)CN(CCCNC(=O)c1cc(=O)[nH]c2ccc(S(=O)(=O)N3CCCCCC3)cc12)CC(C)C`, the “activity change, positive = activation” value was inactive: 21%.

Consider `CC(=O)N1c2nc(C(C)C)nn2C2(CCCCC2)[C@@H]2CCCC[C@@H]21`, for which the “activity change, positive = activation” value was inactive: -13.5%.

For `CCOc1ccc2oc(=O)cc(CN3CCN(c4cc(C)ccc4C)CC3)c2c1`, the “activity change, positive = activation” value is inactive: -11.8%.

As for `CCc1ccc(NC(=O)CN2CCCN(Cc3cccc(Cl)c3)S2(=O)=O)cc1`, the “activity change, positive = activation” value was inactive: -26.2%.

Consider `COC(=O)c1cc2sc(C)cc2n1CC(=O)Nc1ccc(C)c(C)c1`, for which the “activity change, positive = activation” value is inactive: -9.73%.

For `CCOc1ccc(NC(=O)c2cc(S(=O)(=O)N3CCCCCC3)cn2C)cc1`, the “activity change, positive = activation” value was inactive: -7.78%.

With `Cc1c2cnn(-c3ccccc3)c(=O)c2c(C)n1CC(=O)NCCc1ccc(Cl)cc1`, the “activity change, positive = activation” value is inactive: -9.12%.

Regarding `COc1ccc2c(c1)c1c(c(=O)n(-c3ccc(F)c(Cl)c3)c(=O)n1CC(=O)N1CCCC1)n2C`, the “activity change, positive = activation” value was inactive: -2.73%.

Consider `CC(=O)N1CCc2c(sc3c2c(=O)n(-c2ccccc2)c(=O)n3CC(=O)Nc2ccccc2)C1`, for which the “activity change, positive = activation” value was inactive: -14.5%.

With `COc1cc(CNC(=O)c2ccc3c(c2)N(C)C(=O)C2CCCCN32)cc(OC)c1OC` (configuration not stated), the “activity change, positive = activation” value was inactive: -17.8%.

Consider `CCC1CN(C(=O)N2CCC(C(=O)N3CCN(c4cccc(C)c4C)CC3)CC2)c2ccccc2O1` (configuration not stated), for which the “activity change, positive = activation” value is inactive: -45.6%.

As to `Cc1ccc(Cl)cc1NC(=O)CCC(=O)N1CC(C)Sc2ccccc21` (configuration not stated), the “activity change, positive = activation” value was inactive: -18.3%.

In the case of `O=C(NCCc1ccc(Cl)cc1)C1CCN(c2ncnc3c2nc2n3CCCCC2)CC1`, the “activity change, positive = activation” value is inactive: -19.3%.

Take `Cc1ccc(-n2c(=O)c3c4c(sc3n(CC(=O)c3ccc(Cl)cc3)c2=O)CCC4)cc1C`: the “activity change, positive = activation” value is inactive: -3.7%.

Consider `CN(Cc1ccco1)C(=O)c1ccc2c(c1)N(Cc1ccccc1F)C(=O)c1ccccc1S2`, for which the “activity change, positive = activation” value is inactive: -32.2%.

With `Cc1ccc(S(=O)(=O)Cc2ccc(C(=O)N3CCN(c4cccc(C)c4C)CC3)o2)cc1`, the “activity change, positive = activation” value is inactive: -41.2%.

Regarding `COc1ccc(C(=O)OCc2cc(=O)n3nc(-c4cccs4)sc3n2)cc1`, the “activity change, positive = activation” value was inactive: 5.23%.

Turning to `CCC(Cn1nnc2ccccc2c1=O)NC(=O)Nc1cccc(C)c1C` (configuration not stated), the “activity change, positive = activation” value is inactive: -1.96%.

With `Cc1ccc(NC(=O)C2CCCN(c3nnc(C)c4c(C)n(-c5ccccc5)nc34)C2)c(Cl)c1` (configuration not stated), the “activity change, positive = activation” value is inactive: -6.63%.

For `O=[N+]([O-])c1cc(-c2nc(-c3ccccc3)no2)ccc1N1CCCCC1`, the “activity change, positive = activation” value is inactive: -83.8%.

`CCC(=O)N1CCc2cc(Br)cc(S(=O)(=O)CCC(=O)N3CCN(c4cccc(C(F)(F)F)c4)CC3)c21`: the “activity change, positive = activation” value was inactive: -18.5%.

On to `CC1=C(C(=O)Nc2ccccc2)C(c2ccncc2)n2nc(SCc3ccccc3Cl)nc2N1` (configuration not stated), for which the “activity change, positive = activation” value is inactive: -20.6%.

On to `O=C(Cn1c(=O)n(Cc2ccco2)c(=O)c2ccccc21)Nc1ccc(Cl)cc1Cl`, for which the “activity change, positive = activation” value was inactive: -16.3%.

Regarding `O=C(O)c1ccc(CNCc2ccc(Cl)cc2)s1`, the “activity change, positive = activation” value was inactive: -20.4%.

On to `Cc1ccc2nc(Nc3cccc(Cl)c3C)c(-n3nc(C)cc3C)nc2c1`, for which the “activity change, positive = activation” value is inactive: -1.36%.

With `CC(C)CN(C(=O)c1cccc(S(=O)(=O)N2CCCCC2)c1)C1CCS(=O)(=O)C1` (configuration not stated), the “activity change, positive = activation” value was inactive: 0.381%.

Take `CCOC(=O)c1ccc(NC(=O)Cn2c(=O)n(-c3ccc(C)cc3)c(=O)c3c2cnn3C)cc1`: the “activity change, positive = activation” value was inactive: -15.2%.

Regarding `Cc1ccccc1NC(=O)Cn1c(SCC(=O)Nc2ccc(F)cc2)nc2ccccc21`, the “activity change, positive = activation” value is inactive: -23.6%.

As to `Cc1c(-c2nc(-c3ccc4c(c3)OCO4)no2)nnn1-c1ccc(Br)cc1F`, the “activity change, positive = activation” value was inactive: 12.7%.

As for `Cc1ccc(CNC(=O)Cc2c(C)c3cc4c(C)coc4cc3oc2=O)cc1`, the “activity change, positive = activation” value is inactive: -2.08%.

`O=C(COc1ccccc1Cl)OCc1cc(=O)n2nc(-c3cccs3)sc2n1`: the “activity change, positive = activation” value is inactive: 8.29%.

In the case of `CCOC(=O)c1c(NC(=O)c2nc(SCC)ncc2Cl)sc(C(C)=O)c1C`, the “activity change, positive = activation” value was inactive: 4.4%.

In the case of `COc1ccc([C@@H]2CC(=O)c3c(O)cc(O[C@@H]4O[C@H](CO[C@@H]5O[C@@H](C)[C@H](O)[C@@H](O)[C@@H]5O)[C@@H](O)[C@H](O)[C@@H]4O)cc3O2)cc1O`, the activity change, positive = activation entry was “inactive”.

Take `CCN(c1ncnc2c1cnn2-c1ccc(C)cc1)C1CCCCC1`: the “activity change, positive = activation” value was inactive: -73.3%.

Turning to `Cc1cc(Nc2ccc(C)c(Cl)c2)n2nc(Cc3ccccc3)nc2n1`, the “activity change, positive = activation” value is inactive: -26.2%.

With `COCCn1c(=O)[nH]c2cc(C(=O)NCc3ccccc3Cl)ccc2c1=O`, the “activity change, positive = activation” value is inactive: -18.7%.

Turning to `CCOc1ccc(NC(=O)c2c(Nc3ccc(OC)cc3OC)sc(C(=O)c3ccc(Cl)cc3)c2N)cc1`, the “activity change, positive = activation” value is inactive: -9.4%.

With `CCOc1ccc(NC(=O)CSc2nc(-c3ccc(OC)cc3)nc3c2Cc2c(CO)cnc(C)c2O3)cc1`, the “activity change, positive = activation” value was inactive: -5.94%.

As for `CC[C@H]1CN2CCc3cc(OC)c(OC)cc3[C@@H]2C[C@@H]1C[C@H]1NCCc2cc(OC)c(OC)cc21`, the “activity change, positive = activation” value was inactive: -38.5%.

As to `CCOC(=O)c1cccc(NC(=O)c2cc3sccc3n2Cc2ccc(Cl)cc2)c1`, the “activity change, positive = activation” value was inactive: -7.09%.

For the molecule `CCOc1ccc(CCNC(=O)CCc2cn(Cc3ccccc3F)c3ccccc23)cc1OCC`, the “activity change, positive = activation” value is inactive: -22.3%.

`CCC[C@H]1C[C@H](C(=O)N[C@@H]([C@@H]2O[C@@H](SC)[C@@H](O)[C@@H](O)[C@@H]2O)[C@H](C)Cl)N(C)C1`: the “activity change, positive = activation” value is inactive: -5.95%.
